Screen size: about 350,000 compounds; about 31,000 (8.9%) were called active. Inconclusive means that the source gave no clear call. Such entries were picked first, then a sample of the others. Calls follow the shape of the dose curve; as a rule, active = well fitted inhibition curve with a large enough effect; inconclusive = small, poorly fitted or top-dose-only effect; inactive = no such curve, though single readings can be large or run the other way. Where the call is inconclusive, the potency comes from a doubtful curve fit.
The compounds below were run against Histone-lysine N-methyltransferase EHMT2 (Homo sapiens) (UniProt Q96KQ7) (assay: qHTS Assay for Inhibitors of Histone Lysine Methyltransferase G9a). Details: G9a H3K9 monomethylation, AlphaScreen, 2 h; activity, negative = inhibition: at 59 µM (top of the series) unless noted.
Chain of UniProt Q96KQ7 (Q96KQ7 whole entry, looked up): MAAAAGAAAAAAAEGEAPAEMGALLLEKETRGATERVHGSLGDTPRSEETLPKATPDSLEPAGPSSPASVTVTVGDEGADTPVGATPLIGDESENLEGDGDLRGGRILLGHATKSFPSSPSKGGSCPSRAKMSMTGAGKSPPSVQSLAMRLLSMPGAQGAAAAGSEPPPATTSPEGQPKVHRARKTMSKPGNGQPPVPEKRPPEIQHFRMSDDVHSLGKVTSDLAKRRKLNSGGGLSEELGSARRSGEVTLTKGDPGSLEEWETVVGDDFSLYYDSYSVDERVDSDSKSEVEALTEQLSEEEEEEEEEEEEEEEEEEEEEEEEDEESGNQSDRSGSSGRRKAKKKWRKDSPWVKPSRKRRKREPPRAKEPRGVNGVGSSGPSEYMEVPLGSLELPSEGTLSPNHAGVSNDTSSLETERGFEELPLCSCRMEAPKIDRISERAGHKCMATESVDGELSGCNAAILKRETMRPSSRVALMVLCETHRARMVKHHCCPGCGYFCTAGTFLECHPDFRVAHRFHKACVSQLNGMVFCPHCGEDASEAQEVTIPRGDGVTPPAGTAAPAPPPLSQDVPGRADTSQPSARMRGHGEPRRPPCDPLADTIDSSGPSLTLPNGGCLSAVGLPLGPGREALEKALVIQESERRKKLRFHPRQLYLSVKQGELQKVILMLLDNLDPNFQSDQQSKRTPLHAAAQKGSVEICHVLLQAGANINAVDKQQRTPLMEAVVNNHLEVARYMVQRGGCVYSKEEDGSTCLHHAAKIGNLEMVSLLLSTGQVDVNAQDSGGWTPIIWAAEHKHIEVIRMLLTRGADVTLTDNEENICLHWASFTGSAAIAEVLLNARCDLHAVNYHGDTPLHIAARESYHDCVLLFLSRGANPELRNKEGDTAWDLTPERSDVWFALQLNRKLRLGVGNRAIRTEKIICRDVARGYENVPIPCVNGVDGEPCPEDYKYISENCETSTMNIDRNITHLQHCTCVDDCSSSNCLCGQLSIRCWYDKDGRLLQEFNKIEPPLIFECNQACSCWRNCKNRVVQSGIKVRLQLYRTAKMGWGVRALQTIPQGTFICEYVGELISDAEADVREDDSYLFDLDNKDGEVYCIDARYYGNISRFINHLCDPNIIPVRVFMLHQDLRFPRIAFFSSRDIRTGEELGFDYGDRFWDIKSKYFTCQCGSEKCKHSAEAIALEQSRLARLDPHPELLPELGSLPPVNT
Outline: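 AlphaScreen detection with an anti-monomethyl H3K9 antibody quantified product after a 2 h room-temperature reaction containing 500 nM biotinylated H3K9 peptide, 20 µM SAM and 20 nM enzyme, which had been preincubated 15 min with compound.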
`O=C(CCN1C(=O)c2ccccc2S1(=O)=O)NCc1ccccc1Cl` was tested, and the activity, negative = inhibition was inactive: -49.1% [at 2.33 µM].
With `Cc1ccc2c(c1)/C(=N/OC(=O)c1ccc(F)cc1)CCS2` the Potency was “inactive”.
`CCCC12CN3CC(CCC)(CN(C1)C3c1c[nH]c3ccc(OC)cc13)C2=O` (stereo not drawn) was tested, and the Potency was “inactive”.
In the case of `COC(=O)C1=C(C)Nc2sc(C(N)=O)c(N)c2C1c1ccncc1` (stereo not drawn), the Potency is reported as inconclusive: 89.1 µM [inhibitor, single point].
In the case of `CCOC(=O)c1ccc(NC(=O)CSc2nc3c(c(=O)n2-c2ccccc2OC)SCC3)cc1`, the Potency is reported as inconclusive: 39.8 µM [inhibitor, partial curve].
With `COc1ccc(-c2cc(=O)oc3c(C)c(OCC(=O)N(C)C)ccc23)cc1` the Potency was inconclusive: 17.8 µM [inhibitor, partial curve, poor fit].
`Cn1nc(C(=O)NNC(=O)C(CCC(N)=O)NS(=O)(=O)c2ccc(Cl)cc2)c2ccccc2c1=O` (stereo not drawn) was tested, and the Potency was inconclusive: 8.91 µM [inhibitor, single point].
`COc1ccccc1CC(=O)Nc1ccc2c(C)cc(=O)oc2c1` was tested, and the Potency was active: 70.8 µM.
In the case of `O=C1CSc2ccc(C(=O)NCC(c3ccco3)N3CCCCC3)cc2N1` (stereo not drawn), the Potency is reported as inconclusive: 50.1 µM [inhibitor, partial curve, poor fit].
`COCCNC(=O)CN1CCN(C(c2ccccc2)c2ccccc2)CC1` was tested, and the Potency was active: 14.1 µM.
In the case of `CC(=O)Nc1ccc(S(=O)(=O)NC2(C(F)(F)F)C(=O)Nc3c2c(=O)[nH]c(=O)n3-c2ccc(C)cc2)cc1` (stereo not drawn), the Potency is reported as “inactive”.
`O=c1nc(/C=C/c2ccc(O)c(O)c2)oc2ccccc12` was tested, and the Potency was active: 39.8 µM.
`CCn1c2ccccc2c2cc(Nc3cc(C)nc4ncnn34)ccc21` was tested, and the Potency was active: 44.7 µM.
In the case of `Cc1ccc(C(=O)CC2(O)C(=O)N(CCc3ccccc3)c3ccc(Br)cc32)cc1` (stereo not drawn), the Potency is reported as inconclusive: 0.708 µM [inhibitor, full curve, poor fit].
In the case of `CCN1CCN(CCCNC(=O)CN2C(=O)c3cccnc3Oc3ccc(Cl)cc32)CC1`, the Potency is reported as inconclusive: 79.4 µM [inhibitor, partial curve, poor fit].
`CCN(CC)CCN1C(=O)C(=O)/C(=C(/O)c2c(C)[nH]c(C(=O)OC)c2C)C1c1ccco1` (stereo not drawn) was tested, and the activity, negative = inhibition was inconclusive: -94.4% [inhibitor].
For `COc1cc(C)ccc1OCc1cc(C(=O)N(Cc2c(C)nn(C)c2C)C2CC2)no1`, the Potency was “inactive”.
With `O=C(/C=C/c1ccc2c(c1)OCCO2)c1ccccc1` the Potency was “inactive”.
In the case of `COc1cccc(-n2c(C)nc3c(cnn3-c3ccc(C)c(C)c3)c2=O)c1`, the Potency is reported as “inactive”.
`CCCCN=Cc1sc2ccc(OCC)cc2c1O` was tested, and the Potency was inconclusive: 25.1 µM [inhibitor, single point].
`CCN(C(=O)COC(=O)c1ccc(Cl)c(N)c1)C1CCS(=O)(=O)C1` (stereo not drawn) was tested, and the Potency was “inactive”.
For `O=C(NCc1ccc2c(c1)OCO2)C(=O)NC1CCCCC1`, the Potency was inconclusive: 50.1 µM [inhibitor, partial curve, poor fit].
In the case of `COc1ccc(C2C=C(Nc3ccccc3)C(=O)N2c2ccccc2)cc1OC` (stereo not drawn), the Potency is reported as active: 8.91 µM.
In the case of `CC(O)c1n(C)c(Cl)c[n+]1C` (stereo not drawn), the Potency is reported as active: 11.2 µM.
For `C=CCn1c(SCC(=O)N2CCCCCC2)nc2ccccc2c1=O`, the Potency was “inactive”.
`COCCNC(=O)/C(C#N)=C/c1cc(C)n(C2CCCCC2)c1C` was tested, and the Potency was inconclusive: 56.2 µM [inhibitor, partial curve, poor fit].
`CN(C)S(=O)(=O)c1ccc(C(=O)OCC(=O)Nc2ccccc2OC(F)F)cc1` was tested, and the Potency was inconclusive: 31.6 µM [inhibitor, partial curve, poor fit].
`NC(=O)c1ccc[n+]([C@@H]2OC(COP(=O)([O-])OP(=O)(O)OCC3OC(n4cnc5c(N)ncnc54)C(O)C3O)C(O)C2O)c1` (stereo partly drawn) was tested, and the activity, negative = inhibition was inactive: -40.1% [at 2.33 µM].
With `Cc1ccc(CNCC(=O)Nc2ccc(C)cc2Br)cc1` the Potency was inconclusive: 79.4 µM [inhibitor, partial curve, poor fit].
For `Cc1ccc(-n2nc3c(N4CCCC(C(=O)NCc5ccccc5C)C4)nnc(C)c3c2C)cc1` (stereo not drawn), the Potency was inconclusive: 4.47 µM [inhibitor, full curve].
For `Cc1cc(-c2n[nH]c(=S)n2/N=C/c2ccc(Br)s2)n[nH]1`, the Potency was inconclusive: 1.26 µM [inhibitor, full curve, poor fit].
For `COCCNC(=O)C(OC(=O)c1nsc(Cl)c1Cl)C(C)C` (stereo not drawn), the Potency was inconclusive: 89.1 µM [inhibitor, partial curve, poor fit].
With `COc1cccc(CN(C)C(=O)C2CCN(S(=O)(=O)c3cccs3)CC2)c1OC` the activity, negative = inhibition was inactive: 6.25% [at 2.33 µM].
In the case of `O=[N+]([O-])c1cc([N+](=O)[O-])c2cccnc2c1O`, the Potency is reported as active: 31.6 µM.
In the case of `COc1ccc(OC)c(-n2nnnc2SCC(=O)Nc2nc(C)c(C)s2)c1`, the activity, negative = inhibition is reported as inactive: -10.2% [at 2.33 µM].
`O=C(c1ccc2c(c1)[nH]c(=S)n1c3ccccc3nc21)N1CCN(c2cccc(Cl)c2)CC1` was tested, and the Potency was inconclusive: 70.8 µM [inhibitor, partial curve, poor fit].
`O=C(c1cnn2c1NC(c1ccc(Br)cc1)CC2C(F)(F)F)N1CCN2CCCC2C1` (stereo not drawn) was tested, and the Potency was inconclusive: 35.5 µM [inhibitor, single point].
With `O=C1c2ccccc2C(=O)N1CSc1nnc(Nc2ccccc2)s1` the Potency was inconclusive: 50.1 µM [inhibitor, partial curve, poor fit].
For `O=[N+]([O-])c1cc([N+](=O)[O-])c2cc3ccccc3nc2c1`, the Potency was inconclusive: 79.4 µM [inhibitor, single point].
`CCN(CC)CCN1C(=O)C(O)=C(C(=O)c2cc3cccc(OC)c3o2)C1c1cccs1` (stereo not drawn) was tested, and the Potency was inconclusive: 89.1 µM [inhibitor, partial curve, poor fit].
With `CCCC(=O)Nc1ccc(-c2csc(NNC(C)=O)n2)cc1` the Potency was active: 35.5 µM.
In the case of `Cc1ccc2scc(N3CCCC(C)C3)c(=O)c2c1` (stereo not drawn), the Potency is reported as inconclusive: 35.5 µM [inhibitor, partial curve, poor fit].
In the case of `Cc1ccc(S(=O)(=O)N(C)C)cc1NC(=O)CCNC(=O)c1ccco1`, the Potency is reported as inconclusive: 79.4 µM [inhibitor, single point].
% is scaled to controls: 0 for no effect and ±100 for the full control effect; potency is read from the fitted curve at half-maximal effect; tags tell the direction and shape of the fitted curve.
Also: nearly all actives have a fitted effect of over 75% in size.
